According to the supplement of paper PMC4604168 (melanoma cell lines):
The other results are listed elsewhere or left out. Many values rest on one well or one pass, so single values are uncertain.

The compounds below were run on A375 (assay: cell count relative to DMSO control; melanoma cells; higher = more viable cells). Details: library dose: standard library concentration; 72 h.
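Further: cells treated in 1,536-well plates, then fixed and DAPI-stained, with nuclei counted from automated high-throughput microscope images.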

| SMILES | cell count [%] |
| --- | --- |
| CC(=O)c1c(C)c2cnc(Nc3ccc(N4CCNCC4)cn3)nc2n(C2CCCC2)c1=O [palbociclib] + C/C(O)=C(\C#N)C(=O)Nc1cc(Br)ccc1Br [LFM-A13] (first compound 0.2 µM, partner dose 10 µM) | 59.8 |
| O=C(Oc1ccc([N+](=O)[O-])cc1)N1CCC(C(O)(c2ccc3c(c2)OCO3)c2ccc3c(c2)OCO3)CC1 + O=c1cc(-c2cccc3c2Sc2ccccc2S3)oc(N2CCOCC2)c1 [KU55933] (first compound 5 µM, partner dose 5 µM) | 107 |
| C[C@@H](N)c1ccc(C(=O)Nc2ccnc3[nH]ccc23)cc1 + O=C(Oc1ccc([N+](=O)[O-])cc1)N1CCC(C(O)(c2ccc3c(c2)OCO3)c2ccc3c(c2)OCO3)CC1 [JZL184] (first compound 2 µM, partner dose 5 µM) | 88.7 |
| CS(=O)(=O)CCNCc1ccc(-c2ccc3ncnc(Nc4ccc(OCc5cccc(F)c5)c(Cl)c4)c3c2)o1 [lapatinib] + C[As](C)SC[C@H](NC(=O)CC[C@H](N)C(=O)O)C(=O)NCC(=O)O [Darinaparsin] (first compound 4 µM, partner dose 2 µM) | 137 |
| CC(C)(C)c1cnc(CSc2cnc(NC(=O)C3CCNCC3)s2)o1 + O=C(Oc1ccc([N+](=O)[O-])cc1)N1CCC(C(O)(c2ccc3c(c2)OCO3)c2ccc3c(c2)OCO3)CC1 [JZL184] (first compound 0.05 µM, partner dose 5 µM) | 77.8 |
| C[C@@H](Oc1cc(-c2cnn(C3CCNCC3)c2)cnc1N)c1c(Cl)ccc(F)c1Cl [Crizotinib] + C/C(O)=C(\C#N)C(=O)Nc1cc(Br)ccc1Br [LFM-A13] (first compound 1 µM, partner dose 10 µM) | 97.9 |
| CCN(CC)CCNC(=O)c1c(C)[nH]c(/C=C2\C(=O)Nc3ccc(F)cc32)c1C [sunitinib] + C/C(O)=C(\C#N)C(=O)Nc1cc(Br)ccc1Br [LFM-A13] (first compound 2 µM, partner dose 10 µM) | 103 |
| Cc1ccc(NC(=O)c2cccc(N(C)C)c2)cc1NC(=O)c1ccc(O)cc1 + C/C(O)=C(\C#N)C(=O)Nc1cc(Br)ccc1Br [LFM-A13] (first compound 10 µM, partner dose 10 µM) | 104 |
| C/C(O)=C(\C#N)C(=O)Nc1cc(Br)ccc1Br + CC(C)CCN1c2nc(Nc3cc(F)c(O)c(F)c3)ncc2N(C)C(=O)C1C [BID1870] (first compound 10 µM, partner dose 1 µM) | 102 |
| O=c1[nH]nc(Sc2ncc([N+](=O)[O-])s2)n1-c1ccc2c(c1)OCCO2 + Cn1cc(C2=C(c3cn(C4CCN(Cc5ccccn5)CC4)c4ccccc34)C(=O)NC2=O)c2ccccc21 [Enzastaurin] (first compound 1 µM, partner dose 4 µM) | 99.2 |
| COc1ccc(C2=N[C@@H](c3ccc(Cl)cc3)[C@@H](c3ccc(Cl)cc3)N2C(=O)N2CCNC(=O)C2)c(OC(C)C)c1 [Nutlin-3] + Cc1cc(SCc2sc(-c3ccc(C(F)(F)F)c(F)c3)nc2C)ccc1OCC(=O)O [GW0742] (first compound 0.5 µM, partner dose 10 µM) | 97.2 |
| CNC(=O)c1cc(Oc2ccc(NC(=O)Nc3ccc(Cl)c(C(F)(F)F)c3)cc2)ccn1 [sorafenib] + O=C(Oc1ccc([N+](=O)[O-])cc1)N1CCC(C(O)(c2ccc3c(c2)OCO3)c2ccc3c(c2)OCO3)CC1 [JZL184] (first compound 2 µM, partner dose 5 µM) | 92.5 |
| O=C(/C=C/c1cccnc1)NCCCCC1CCN(C(=O)c2ccccc2)CC1 + C[As](C)SC[C@H](NC(=O)CC[C@H](N)C(=O)O)C(=O)NCC(=O)O [Darinaparsin] (first compound 0.05 µM, partner dose 2 µM) | 84.9 |
| Cn1sc(=O)n(Cc2ccccc2)c1=O + C[As](C)SC[C@H](NC(=O)CC[C@H](N)C(=O)O)C(=O)NCC(=O)O [Darinaparsin] (first compound 2 µM, partner dose 2 µM) | 99.9 |
| N#Cc1c(O)c2c(-c3ccc(-c4ccccc4O)cc3)csc2[nH]c1=O + O=C(Oc1ccc([N+](=O)[O-])cc1)N1CCC(C(O)(c2ccc3c(c2)OCO3)c2ccc3c(c2)OCO3)CC1 [JZL184] (first compound 10 µM, partner dose 5 µM) | 102 |
| O=C(Oc1ccc([N+](=O)[O-])cc1)N1CCC(C(O)(c2ccc3c(c2)OCO3)c2ccc3c(c2)OCO3)CC1 + CCCCCCCCCCCC1=C(O)C(=O)C=C(O)C1=O [Embelin] (first compound 5 µM, partner dose 6 µM) | 99.7 |
